# Results published in PubChem BioAssay AID1347055 (National Center for Advancing Translational Sciences (NCATS), 2019).
# Where “and” joins values, the source holds several entries; their conditions need not be identical. Identical values can stand only once. Hit rate of the full screen: of about 54,000 compounds, about 120 (0.22%) were called active. Inconclusive means that the source gave no clear call. Such entries were picked first, then a sample of the others. Calls come from the whole dose curve; as a rule, active = well fitted inhibition curve with a large enough effect; inconclusive = small, poorly fitted or top-dose-only effect, or effect the other way; inactive = flat fitted curve, though single readings scatter. A potency beside an inconclusive call is a rough fit, not a confirmed value.
# Molecular target: Fumarate hydratase, mitochondrial (Homo sapiens) (UniProt P07954)
# Test: Identification of activators of human fumarate hydratase by quantitative high-throughput screening; note: the screen sought activators but most active calls are inhibition curves; nearly all actives have a fitted effect of over 45% in size
# Settings: FH coupled MDH/diaphorase resazurin fluorescence, 15 min; series mostly up to 53.3 µM
# Potency is the fitted concentration of half-maximal effect; tags give direction and shape of the fitted curve.
# Sequence of UniProt P07954 (P07954 whole entry, looked up): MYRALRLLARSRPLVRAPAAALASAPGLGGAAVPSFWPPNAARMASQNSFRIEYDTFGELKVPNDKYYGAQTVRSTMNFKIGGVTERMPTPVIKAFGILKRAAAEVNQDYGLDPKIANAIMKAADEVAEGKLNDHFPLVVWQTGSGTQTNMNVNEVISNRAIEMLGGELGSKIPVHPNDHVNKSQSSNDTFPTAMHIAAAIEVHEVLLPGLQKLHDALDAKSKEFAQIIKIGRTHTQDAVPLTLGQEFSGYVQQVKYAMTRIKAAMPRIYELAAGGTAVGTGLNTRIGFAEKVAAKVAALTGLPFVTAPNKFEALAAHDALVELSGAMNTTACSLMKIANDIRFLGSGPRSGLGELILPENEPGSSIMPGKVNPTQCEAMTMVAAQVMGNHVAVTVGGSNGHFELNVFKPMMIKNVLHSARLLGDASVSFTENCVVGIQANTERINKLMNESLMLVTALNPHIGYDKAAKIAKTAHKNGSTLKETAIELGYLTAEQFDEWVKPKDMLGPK
row,SMILES,Potency
1,O=C1OC(c2ccc(O)c(S(=O)(=O)O)c2)(c2ccc(O)c(S(=O)(=O)O)c2)c2c(Br)c(Br)c(Br)c(Br)c21,active: 27.6 µM
2,CC(=O)O[C@H]1C[C@]2(O)[C@@H]3CC[C@@H]4C[C@@H](O)CC[C@]4(C)[C@H]3CC[C@]2(C)[C@H]1c1ccc(=O)oc1,inactive
3,CN1CCc2cc(O)cc3c2[C@H]1Cc1ccc(O)c(O)c1-3,active: 14.1 µM
4,O=C(N[C@@H](COc1ccc2[nH]c(=O)[nH]c2c1)c1ccccc1)c1cccn(Cc2ccc(F)c(F)c2)c1=O,inactive
5,COc1cc(C(=O)O[C@H]2[C@@H]3C=CO[C@@H](O[C@@H]4O[C@H](CO)[C@@H](O)[C@H](O)[C@H]4O)[C@@H]3[C@@]3(CO)O[C@@H]23)ccc1O,"inconclusive: 23.3 µM [activator, partial curve, poor fit]"
6,O=C(c1ccc2c(c1)N(Cc1ccc(F)cc1Cl)C(=O)c1ccccc1S2)N1CCC2(CC1)OCCO2,"inconclusive: 35.5 µM [inhibitor, partial curve, poor fit]"
7,CCN(CC)C(=O)N[C@@H]1C=C2c3cccc4[nH]cc(c34)C[C@@H]2N(C)C1,inactive
8,O=C(Nc1ccc2c(c1)OCCO2)c1cccn(Cc2cccc([N+](=O)[O-])c2)c1=O,"inconclusive: 8.91 µM [inhibitor, partial curve, poor fit]"
9,CC(=O)O[C@H]1C[C@@H](OC(C)=O)C(C)(C)C2C[C@@H](O)[C@]3(C)C(CC[C@@]4(C)[C@H](C5=CC(=O)OC5O)C[C@H]5O[C@]543)[C@]21C (some centres undefined),inactive
10,N#CC(C#N)=Cc1ccc(O)c(O)c1,"inconclusive: 20 µM [inhibitor, partial curve, poor fit]"
11,C=C1C(=O)OC2/C=C(\COO)CC/C=C(\COC(C)=O)CC(OC(=O)C(C)CC)C12 (centres undefined),"inconclusive: 0.0033 µM [inhibitor, full curve]"
12,NC(=O)CI,active: 25.1 µM
13,C/C=C1/CN2CC[C@]34C(=Nc5ccccc53)[C@@H]2C[C@@H]1[C@H]4C(=O)OC,inactive
14,CCc1ccc(-n2nc(C)c3c2NC(=O)CSC3c2ccc(OC)cc2OC)cc1 (centres undefined),inactive
15,O=S(=O)(O)C(F)(F)C(F)(F)C(F)(F)C(F)(F)C(F)(F)C(F)(F)C(F)(F)C(F)(F)F,"inconclusive: 39.9 µM [inhibitor, partial curve]"
16,C[C@@H]1O[C@@H](O[C@H]2CC[C@@]3(C)C(CC[C@@H]4C3CC[C@]3(C)[C@@H](C5=CC(=O)OC5)CC[C@]43O)C2)[C@H](O)[C@H](O)[C@H]1O (some centres undefined),inactive
17,COC1CC(OC2CCC3(C)C(CCC4C3CCC3(C)C(C5=CC(=O)OC5)C(OC(C)=O)CC43O)C2)OC(C)C1OC1OC(CO)C(O)C(O)C1O (centres undefined),inactive
18,CN1CCCCC1Cn1cc(C(=O)c2cc([N+](=O)[O-])ccc2I)c2ccccc21 (centres undefined),inactive
19,Cc1cccc(CN2C(=O)CN=C(c3ccccc3)c3cc(Cl)ccc32)c1,"inconclusive: 35.5 µM [inhibitor, single point]"
20,c1ccc2c(c1)Nc1ccccc1S2,"inconclusive: 12.6 µM [inhibitor, partial curve]"
21,COc1cccc(NCC(F)Cn2c3ccc(Br)cc3c3cc(Br)ccc32)c1 (centres undefined),inactive
22,CCCN(CCC)c1c([N+](=O)[O-])cc(S(N)(=O)=O)cc1[N+](=O)[O-],"inconclusive: 28.2 µM [inhibitor, partial curve]"

row,SMILES,Potency
1,CCC(OC(C)=O)C(CC(C)NC)(c1ccccc1)c1ccccc1 (centres undefined),inactive
2,N#Cc1cn([C@@H]2O[C@H](CO)[C@H](O)[C@@H]2O)c2ncnc(N)c12,inactive
3,COc1ccc(Cl)cc1NC(=O)CN1C(=O)CN=C(c2ccccc2)c2cc(Cl)ccc21,"inconclusive: 35.5 µM [inhibitor, partial curve, poor fit]"
4,Cc1ccc(-n2c(/C=C/c3ccc(Br)s3)nc3ccccc3c2=O)cc1,inactive
5,C=C(CO)C(=O)O[C@H]1CC(=C)[C@@H]2C[C@H](O)C(=C)[C@@H]2[C@H]2OC(=O)C(=C)[C@@H]21,inactive
6,Oc1ccc2c3c1O[C@H]1c4oc5ccccc5c4C[C@@]4(O)C(C2)N(CC2CC2)CCC314 (some centres undefined),"inconclusive: 31.6 µM [inhibitor, partial curve, poor fit]"
7,CC[C@H]1C2CC3[C@@H]4N(C)c5ccccc5[C@]45C[C@@H]([C@H]2[C@H]5O)N3[C@H]1O,inactive
8,CCCCCOc1cc2c(cc1-c1cc(/C=C/C(=O)O)ccc1O)C(C)(C)CCC2(C)C,"inconclusive: 50.1 µM [inhibitor, single point]"
9,Nc1ccc(CCN2CCN(c3cccc(C(F)(F)F)c3)CC2)cc1,"inconclusive: 22.4 µM [inhibitor, single point]"
10,CC(=O)[O][Hg][c]1ccccc1,inactive
11,O=c1[nH]c2ccccc2n1C1CCN(CCCC(c2ccc(F)cc2)c2ccc(F)cc2)CC1,"inconclusive: 25.1 µM [inhibitor, single point]"
12,COc1cc2c(cc1F)C(c1ccccc1Cl)=Nc1c(n[nH]c1C)N2,"inconclusive: 20 µM [inhibitor, partial curve, poor fit]"
13,CCC1CN2CCc3cc(OC)c(OC)cc3C2CC1CC1=NCCc2cc(O)c(OC)cc21 (centres undefined),inactive
14,O=C(COc1ccc(Cl)cc1)Nc1ccc(Cl)cc1C(=O)c1ccccc1,inactive
15,C=CC(C)(O)CC/C=C(\C)C(=O)O[C@H]1[C@H](O)[C@@H](CO)O[C@@H](OC(=O)[C@]23CCC(C)(C)CC2C2=CCC4[C@@]5(C)CC[C@H](O[C@@H]6O[C@H](CO[C@@H]7OC[C@H](O)[C@H](O)[C@H]7O[C@@H]7OC[C@@H](O)[C@H](O)[C@H]7O)[C@@H](O)[C@H](O)[C@H]6O)C(C)(C)C5CC[C@@]4(C)[C@]2(C)CC3)[C@@H]1OC1OC(C)C(O[C@@H]2OC[C@@H](O)[C@H](O[C@@H]3OC[C@@H](O)[C@H](O)[C@H]3O)[C@H]2O)C(O)C1O (some centres undefined),inactive
16,Cc1ccc([N+](=O)[O-])[c]2c1[O][Hg]2,"inconclusive: 12.3 µM [inhibitor, partial curve]"
17,CN(C)c1cc2c(cc1Sc1nc3c(N)nccc3n1CCNCC(C)(C)C)OCO2,inactive
18,O=S1(=O)N(CCN2CC=C(c3c[nH]c4cc(F)ccc34)CC2)c2cccc3c2N1CCC3,"inconclusive: 39.8 µM [inhibitor, single point]"
19,CC[C@@H](C)[C@H]1C(=O)O[C@H](C(C)C)C(=O)N(C)[C@@H]([C@@H](C)CC)C(=O)O[C@H](C(C)C)C(=O)N(C)[C@@H]([C@H](C)CC)C(=O)O[C@H](C(C)C)C(=O)N1C,inactive
20,CN1[C@H]2CC(O)C[C@H]1[C@H]1O[C@H]12 (some centres undefined),inactive
21,CO[C@]12CC[C@@]3(C[C@@H]1[C@](C)(O)C(C)(C)C)[C@@H]1Cc4ccc(O)c5c4[C@@]3(CCN1CC1CC1)[C@H]2O5,"inconclusive: 28 µM [inhibitor, partial curve, poor fit]"
22,C[C@@H](CN1CCC(n2c(=O)[nH]c3cc(Br)ccc32)CC1)NC(=O)[C@@H]1C[C@H]1c1ccccc1,inactive

row,SMILES,Potency
1,NC1CCc2cc(O)c(O)cc2C1 (centres undefined),"inconclusive: 20 µM [inhibitor, partial curve]"
2,C[C@]12CCC(=O)C=C1CC[C@@H]1[C@@H]2CC[C@]2(C)C(=O)CC[C@@H]12,inactive
3,Cc1ccc(CN2C(=O)c3ccccc3Sc3ccc(C(=O)N4CCC5(CC4)OCCO5)cc32)cc1,"inconclusive: 50.1 µM [inhibitor, partial curve, poor fit]"
4,C/C(O)=C(\C#N)C(=O)Nc1cc(Br)ccc1Br,"inconclusive: 35.5 µM [inhibitor, single point]"
5,CC[C@H]1C[C@@H]2CC[C@@H](O2)[C@@H](C)C(=O)O[C@H](CC)C[C@H]2CC[C@H](O2)[C@H](C)C(=O)O[C@@H](C)C[C@@H]2CC[C@@H](O2)[C@@H](C)C(=O)O[C@H](CC)C[C@H]2CC[C@H](O2)[C@H](C)C(=O)O1,inactive
6,C[C@]12C/C(=C/O)C(=O)C[C@@H]1CC[C@@H]1[C@@H]2CC[C@@]2(C)[C@H]1CC[C@]2(C)O,inactive
7,CC1=NN=C(c2ccc(N)cc2)c2cc3c(cc2C1)OCO3,"inconclusive: 20 µM [inhibitor, partial curve, poor fit]"
8,Cc1cccc(Cn2cccc(C(=O)Nc3ccc4c(c3)OCCO4)c2=O)c1,"inconclusive: 35.5 µM [inhibitor, single point]"
9,CC(=O)c1c(O)c(C)c(O)c(Cc2c(O)c3c(c(C(=O)/C=C/c4ccccc4)c2O)OC(C)(C)C=C3)c1O,"inconclusive: 28.2 µM [inhibitor, partial curve]"
10,CC(C)C12CN3CC(C(C)C)(CN(C1)C3c1ccccn1)C2=O (centres undefined),"inconclusive: 50.1 µM [inhibitor, single point]"
11,CCOc1ccc(CN(CCc2ccc3c(c2)OCO3)Cc2cccc(OC)c2)cc1,inactive
12,Cc1cccc(-c2nc(CN3C(=O)CN=C(c4ccccc4)c4ccccc43)c(C)o2)c1,inactive
13,COc1cc(C)[nH]c(=O)c1CNC(=O)c1c(C)n([C@H](C)C2CCOCC2)c2ccccc12,inactive
14,CC(C)(C)CC(C)(C)c1ccc(O)cc1,"inconclusive: 28.2 µM [inhibitor, single point] and inconclusive: 34.7 µM [inhibitor, single point]"
15,CCCCCCCCCC(CC)c1ccc(S(=O)(=O)O)cc1 (centres undefined),"inconclusive: 28.2 µM [inhibitor, partial curve]"
16,COc1ccc(NC(=O)c2sc3nc4c(cc3c2N)N2CCC4CC2)cc1OC,"inconclusive: 39.8 µM [inhibitor, partial curve, poor fit]"
17,Cc1cccc(CN2CC=C(c3noc(CCC(=O)Nc4ccc(C)c(F)c4)n3)CC2)c1,"inconclusive: 15.8 µM [inhibitor, partial curve]"
18,Nc1ncnc2c1ncn2[C@@H]1O[C@H](COP(=O)(O)CP(=O)(O)OP(=O)(O)O)C(O)[C@H]1O (some centres undefined),inactive
19,Clc1ccc(C(c2ccc(Cl)cc2)n2cc[n+](CC(OCc3ccc(Cl)cc3Cl)c3ccc(Cl)cc3Cl)c2)cc1 (centres undefined),"inactive and inconclusive: 22.4 µM [inhibitor, partial curve]"
20,CC1(C)CC/C(=C/c2ccc(Cl)cc2)C1(O)Cn1cncn1 (centres undefined),inactive
